# Measured values as given in the supplement of paper PMC3334620.
# Over roughly 33,000 sequences, “E-score (-0.5 to 0.5)” has its median near -0.021; the highest 2% begin near 0.32. The list shows a part of the results.
# Molecular target: T1, Zap1 (UniProt P47043)
# T1 sequence: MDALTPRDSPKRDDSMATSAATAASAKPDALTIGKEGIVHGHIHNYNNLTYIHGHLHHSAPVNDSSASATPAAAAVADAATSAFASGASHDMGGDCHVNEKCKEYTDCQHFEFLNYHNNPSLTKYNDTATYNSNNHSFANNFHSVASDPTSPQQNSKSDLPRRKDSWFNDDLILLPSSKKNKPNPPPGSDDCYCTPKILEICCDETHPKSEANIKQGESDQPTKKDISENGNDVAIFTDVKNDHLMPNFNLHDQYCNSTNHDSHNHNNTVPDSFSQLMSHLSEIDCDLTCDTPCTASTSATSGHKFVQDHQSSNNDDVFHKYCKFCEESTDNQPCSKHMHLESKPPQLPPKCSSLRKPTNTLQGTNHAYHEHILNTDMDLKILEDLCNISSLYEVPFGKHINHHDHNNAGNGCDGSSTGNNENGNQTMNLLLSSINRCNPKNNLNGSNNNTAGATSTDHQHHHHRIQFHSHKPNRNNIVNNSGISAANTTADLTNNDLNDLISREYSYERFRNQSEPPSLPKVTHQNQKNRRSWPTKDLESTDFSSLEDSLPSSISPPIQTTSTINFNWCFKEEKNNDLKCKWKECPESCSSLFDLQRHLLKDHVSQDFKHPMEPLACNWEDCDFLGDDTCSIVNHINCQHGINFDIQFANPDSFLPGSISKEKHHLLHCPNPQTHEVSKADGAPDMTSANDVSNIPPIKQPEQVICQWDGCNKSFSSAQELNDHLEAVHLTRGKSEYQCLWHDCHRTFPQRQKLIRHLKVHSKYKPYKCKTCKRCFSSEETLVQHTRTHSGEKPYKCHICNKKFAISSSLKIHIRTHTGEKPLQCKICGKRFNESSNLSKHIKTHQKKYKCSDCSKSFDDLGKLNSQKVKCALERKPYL
# Assay: PBM E-score (8-mer binding enrichment) (E-score (-0.5 to 0.5)); higher = stronger / more preferred TF binding; most listed sequences are background and not binding sites
# Conditions: protein concentration: 200 nM; construct: GST-full length
# Procedure, shortened: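 For each ungapped eight-base word taken together with its reverse complement, the Universal PBM Analysis Suite assigned an E-score. Binding data came from GST-tagged yeast transcription factors, applied at about 100-200 nM, on universal all-10-mer Agilent arrays made double-stranded by primer extension. Fluorescent anti-GST marked bound protein, and scans were normalised with masliner.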
row,Sequence,PBM E-score
1,CGGAGTCC,0.0173
2,CTCTAAAG,0.1
3,AGCTCATG,-0.182
4,ACTCATAA,0.00507
5,ACGCAACC,0.316
6,CTGACGCC,-0.16
7,AAAGGTAG,0.247
8,CTGCCCCC,-0.356
9,ACCACCTA,0.0272
10,ACGCGGTC,0.155
11,CACTGAAC,0.135
12,ATCCCTAG,0.0856
13,AGTATATA,0.284
14,GCGATGGA,0.0884
15,AGGACTCC,-0.232
16,AGCTTGCC,-0.356
17,AACGAGCC,-0.189
18,CGCCCCAC,-0.072
19,CCACTAGA,-0.11
20,CCCACGAG,-0.0323
21,AGACTGTC,-0.334
22,CCGGCTAC,-0.0341
23,ACGTGGAG,-0.208
24,CCTCTTCG,-0.137
25,ATGCCCTA,-0.0835

row,Sequence,PBM E-score
1,CTTGCCTC,-0.105
2,CCAAATAG,0.111
3,CGGTGTAC,0.0599
4,CATAAATA,0.00367
5,CTGAAAAC,0.0214
6,ATACTGAC,0.111
7,TCGAACGA,-0.212
8,GAGGTATC,0.219
9,AGCTAGAG,-0.167
10,CGGCTTTC,-0.0955
11,ACCCCTCT,0.174
12,ACTCCTTC,-0.358
13,ACCGTGTG,0.147
14,GAGGTCTA,0.175
15,GTTAGGCA,-0.125
16,AATTACTC,0.05
17,CGCAATCC,0.102
18,ACTGTCAG,-0.00239
19,CGTTGGCA,-0.131
20,AACATCGT,-0.00764
21,AACTACCG,0.179
22,GACCTCTC,0.203
23,CTCGGAAG,-0.0377
24,CTAGAGAC,-0.37
25,GGGGTTGA,0.0856

row,Sequence,PBM E-score
1,GATAAACC,0.21
2,CGGGTCGA,0.0958
3,ACATGTGC,-0.0361
4,GATGCTGC,-0.273
5,ACGGATTG,0.0701
6,AAAGGGTG,0.247
7,CCTACCGA,-0.0771
8,AAGCCAAC,-0.066
9,AACCAATG,0.233
10,GCGTATGA,-0.193
11,AATTATAG,0.174
12,CTAGCGAG,-0.272
13,AGGTAAGA,0.125
14,ATCAACAT,0.00735
15,CCAGTCCC,-0.139
16,ATTTTCAC,0.153
17,CAGCGTGC,-0.26
18,TGCCTCCA,-0.248
19,TTCGTCAA,0.0959
20,AAGAACGT,0.146
21,CCCCATGC,-0.201
22,ACGGGCAA,-0.15
23,CAGACCCG,0.0602
24,ATCAGTAC,-0.0201
25,CTACTATC,0.121

row,Sequence,PBM E-score
1,CAATTCAG,-0.113
2,GTCTAAAC,0.232
3,CGATCGAC,-0.104
4,ATTCAATA,0.149
5,TTCATCAA,0.0934
6,TATTCTAA,0.215
7,TAGCATGA,0.137
8,CGAATATC,-0.0544
9,CACCTGAG,-0.158
10,AGGATAAG,-0.0574
11,ACAGGAAT,0.00039
12,GCGGCTAA,-0.027
13,TGGGTGAA,0.122
14,GACCAGGA,-0.0635
15,ACCCATCC,-0.0783
16,CATTAGTA,0.0876
17,AGCACTTC,-0.247
18,GAGCAATA,-0.0247
19,AAGTGGGG,-0.196
20,TCGATAGA,-0.102
21,CACATCTC,-0.0909
22,TCGTTAAA,-0.0347
23,TCATCAAA,-0.136
24,CCTCCAAG,0.217
25,AGGCACCA,-0.0473

row,Sequence,PBM E-score
1,AATCGATA,0.118
2,ACTCATCA,-0.0219
3,ACCGTTAT,0.133
4,AGAGCCCG,-0.192
5,GAACACCA,0.036
6,ATTAACAA,0.267
7,GAATGACC,0.338
8,ACGCCTAC,-0.14
9,AATAGTTA,0.15
10,CCTTCCGC,-0.234
11,GTCTCGTA,-0.137
12,GAGGATCC,-0.0466
13,ACACATGC,-0.0152
14,ATCACCTA,0.0548
15,TAAACAGA,0.155
16,CTCAAGCA,-0.102
17,AATCATGC,-0.141
18,CATTCTGC,-0.215
19,AAGTGGAG,-0.0859
20,CACGACGA,-0.0826
21,ATCCGTTC,0.0713
22,AATACAAT,-0.0208
23,AACGGTGA,0.0158
24,CAAAACGA,0.0917
25,CAAATTAA,0.0842

row,Sequence,PBM E-score
1,ATGAGATC,0.00613
2,ACAAGGGT,0.387
3,TCATGGAA,-0.018
4,AGTAGCAC,-0.148
5,GGAACTCA,-0.0586
6,AAGGATAG,-0.00757
7,CTGACCGC,0.154
8,TCATAGGA,-0.0078
9,ACATGGGT,0.139
10,AGCTACGC,-0.21
11,TAAAGAAA,0.207
12,ACGTTAGG,-0.0372
13,ACGAACGC,-0.0863
14,CGCGGATA,0.155
15,ACTGAAAA,0.0345
16,GGTAGTCA,0.0872
17,ATCACCAG,0.132
18,CTTCTCTC,-0.105
19,CTTAGCTA,-0.143
20,ACGCCTCG,-0.175
21,GCGTTGTA,-0.0902
22,CCATGAAA,0.258
23,CTAGCCAC,-0.171
24,GTATTCGA,-0.0598
25,GTGGGCGA,-0.0639

row,Sequence,PBM E-score
1,ACGGATCT,-0.163
2,CCGGAGAC,0.17
3,CAGAGGAC,0.0434
4,ACTAGTAT,0.101
5,ATAGAACC,0.172
6,ACAGACCA,0.134
7,CTGCACAG,-0.114
8,AGGGATGG,0.109
9,GGGAAGAC,-0.0707
10,TAGCTAAA,-0.0493
11,AGTTTTGC,0.0622
12,CGGACTAA,0.093
13,AATCCCCA,0.0194
14,ACGACGCA,-0.0461
15,CACACCAG,-0.0223
16,GGTACTAC,0.305
17,CTTCGGGC,-0.304
18,CCACTAAG,0.225
19,AGTGGCAT,-0.224
20,AGTAGCCC,0.0109
21,CGCAGTTC,-0.217
22,GCGAAGCA,-0.121
